Test results reported in PubChem BioAssay AID1645887 (National Center for Advancing Translational Sciences (NCATS), 2021).
“And” between values parts separate entries of the source, which are not always exact repeats. Equal entries are not always repeated. Among all 16,000 compounds or so, about 40 (0.2%) were called active. Roughly 1% stayed inconclusive and do not appear here. The call rests on the fitted dose curve; in most records, active means well fitted activation curve with a large enough effect; inconclusive means small, poorly fitted or top-dose-only effect, or another doubt; inactive means no such curve, though single readings can be large or run the other way. This is one part of the list.

molecular target: Rap guanine nucleotide exchange factor 4 (Homo sapiens) (UniProt Q8WZA2); assay: Validation qHTS for agonist of cAMP-regulated guanine nucleotide exchange factor 4 (EPAC2); settings: EPAC2 Rap1B BODIPY-GDP exchange, fluorescence; activation: stronger effect = higher value;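 further: exchange makes BODIPY-GDP fluorescence drop when released from Rap1B; series mostly up to about 150 µM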
UniProt Q8WZA2, sequence (Q8WZA2 whole entry, looked up): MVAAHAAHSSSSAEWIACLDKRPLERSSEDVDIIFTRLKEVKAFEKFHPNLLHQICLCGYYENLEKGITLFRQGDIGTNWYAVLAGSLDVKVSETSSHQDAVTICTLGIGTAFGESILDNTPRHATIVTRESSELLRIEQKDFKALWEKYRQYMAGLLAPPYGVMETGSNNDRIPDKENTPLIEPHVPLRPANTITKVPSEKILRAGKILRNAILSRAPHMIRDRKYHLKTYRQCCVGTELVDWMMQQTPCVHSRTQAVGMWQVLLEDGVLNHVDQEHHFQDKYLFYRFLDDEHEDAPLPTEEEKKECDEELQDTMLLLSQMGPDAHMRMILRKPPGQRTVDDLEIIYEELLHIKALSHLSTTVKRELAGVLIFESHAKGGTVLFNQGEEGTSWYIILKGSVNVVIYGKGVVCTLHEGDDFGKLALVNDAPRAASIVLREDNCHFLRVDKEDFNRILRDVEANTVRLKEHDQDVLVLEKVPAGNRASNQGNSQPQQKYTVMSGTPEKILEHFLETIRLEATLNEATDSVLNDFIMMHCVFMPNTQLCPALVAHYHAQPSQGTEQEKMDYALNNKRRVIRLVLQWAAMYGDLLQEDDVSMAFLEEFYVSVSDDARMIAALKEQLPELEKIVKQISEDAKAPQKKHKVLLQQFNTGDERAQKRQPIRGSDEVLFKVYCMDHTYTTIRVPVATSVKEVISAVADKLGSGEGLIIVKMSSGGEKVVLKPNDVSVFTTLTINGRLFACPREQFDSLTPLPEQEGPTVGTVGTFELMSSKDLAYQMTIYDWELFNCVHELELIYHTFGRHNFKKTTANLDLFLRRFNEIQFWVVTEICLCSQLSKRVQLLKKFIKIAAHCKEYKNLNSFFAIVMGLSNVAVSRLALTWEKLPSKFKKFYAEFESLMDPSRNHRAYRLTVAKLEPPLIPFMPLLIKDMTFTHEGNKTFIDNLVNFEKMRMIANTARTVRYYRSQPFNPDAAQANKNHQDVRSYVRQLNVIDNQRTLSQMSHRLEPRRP
How it was run: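 Fluorescent exchange assay: 100 nM EPAC2 with 250 nM RAP1B-BODIPY-GDP and 50 uM GDP; compound added, 5 min at room temperature, then read (ex 480/em 540 nm) every 5 min for 30 min. Normalized to 6.5 mM cAMP agonist control.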
On the % scale 0 is the no-effect control and ±100 the full control effect.

activation, inactive:
OCC1OC(n2cnc3c(Cl)nc(Cl)nc32)C(O)C1O (stereo not given) -15.7%
CNc1ncncc1-c1ccccc1CN(C)C -15.3%
CS(=O)(=O)N1CCC2(CC1)CN(c1ccccn1)C2 -15.3%
Oc1cc(-c2nc3ccccc3s2)cc2c1OCCN(Cc1cn[nH]c1-c1ccc(Cl)cc1)C2 -7.25%
N#Cc1ccccc1-c1ccc2ncnc(NCc3cccs3)c2c1 -20.5%
O[C@@H]1CO[C@H]2[C@@H]1OC[C@@H]2O -6.56%
Cc1cc(-n2nc3ccc(Cl)cc3n2)c(O)c(C(C)(C)C)c1 6.12%
O=C([C@@H]1C[C@@H](Sc2nc3ccccc3[nH]2)CN1Cc1ccc(Cl)cc1)N1CCN(c2ccccc2F)CC1 -11%
COc1ccc(C(=O)N2CCC3(CCCN(Cc4nccs4)C3)CC2)cc1 -5.49%
COc1c(O)cc2c(c1O)C1OC(CO)C(O)[C@H](O)[C@H]1OC2=O (stereo not given in full) 6.42%
COc1cc(=O)n2c(c1C(=O)NCc1ccco1)CCN(Cc1c(F)cccc1F)CC2 -10.6%
CCn1c(-c2ccccc2F)nc2cc(NC(C)=O)cc(C(=O)NCc3ncc(C)[nH]3)c21 -9.68%
C[N+]1(C)CC(O)[C@H](C(=O)[O-])C1 (stereo not given in full) -7.26%
Clc1ccc2nc[nH]c2c1 -17.1%
COc1cc(-c2noc(C)c2C#CCO)cc(OC)c1OC -23.8%
CCSc1ccc2c(c1)N(CCCN1CCN(C)CC1)c1ccccc1S2 -4.82%
O=C(c1csnn1)N1CCC2(CCCN(c3ccccc3)C2)CC1 4.94%
Cc1c(O)cccc1C(=O)N[C@@H](CSc1ccccc1)[C@H](O)CN1C[C@H]2CCCC[C@H]2C[C@H]1C(=O)NC(C)(C)C -19.2%
COc1ccc(NC(=O)N2CC[C@@]3(CCCN(C(=O)c4ccncc4)C3)C2)cc1 -21.2%
CC(=O)ON(C(C)=O)c1ccc(/C=C2/C=Cc3ccccc32)cc1 2.34%
CNc1nc(-c2ccccc2Cl)nc2ccccc12 -2.34%
CN(C)C(=O)c1ccc(-c2cc(-n3ccnc3)ncn2)cc1 -11.2%
C[C@H]1C[C@]2(O[C@@H]2C)C(=O)O[C@@H]2CCN(C)C/C=C(/COC(=O)[C@]1(C)O)C2=O -5.13%
CN(C)CCC(c1ccccc1)c1ccccn1 (stereo not given) -16.4% and -1.48% and -14.2%
COc1cccc(-c2ccc3ncnc(N(C)C)c3c2)c1 -1.09%
C=CC(C1=CC(=O)C(OC)=CC1=O)c1ccc(O)cc1 (stereo not given) 9.29%
CC1=CCC(C(C)(C)O)CC1 (stereo not given) -15.6%
CCCCCC1C(=O)CCC1CC(=O)O (stereo not given) -4.42%
CC(C)CCC[C@@H](C)[C@H]1CC[C@H]2[C@@H]3CC=C4C[C@@H](O)CC[C@]4(C)[C@H]3CC[C@]12C -8.56%
CC(C)C[C@H](NC(=O)[C@H](Cc1ccccc1)NC(=O)CNC(=O)CNC(=O)[C@@H](N)Cc1ccc(O)cc1)C(=O)N[C@@H](CCCN=C(N)N)C(=O)N[C@@H](CCCN=C(N)N)C(=O)N[C@@H](CCC(N)=O)C(=O)N[C@@H](Cc1ccccc1)C(=O)N[C@@H](CCCCN)C(=O)N[C@H](C(=O)N[C@H](C(=O)N[C@H](C(=O)O)[C@@H](C)O)C(C)C)C(C)C 4.04%
COc1ccc(-c2nc3cnc(N4CCOCC4)nc3n(-c3ccc(OC)cc3)c2=O)cc1 -15%
O=C(/C=C/c1ccccc1)OCc1ccccc1 -6.76%
Nc1ccn([C@@H]2O[C@H](CO)[C@@H](O)[C@H]2O)c(=O)n1 12.9%
O=C(CN1CCN(Cc2ccc3c(c2)OCO3)CC1)N1c2ccccc2Sc2ccccc21 11.6%
COc1ccc(Oc2ncc3nc(-c4ccc(F)cc4)c(=O)n(C4CC4)c3n2)cc1 -4.93%
CC1O[C@@H](Oc2c(-c3ccc(O)c(O)c3)oc3cc(O)cc(O)c3c2=O)C(O)C(O)C1O (stereo not given in full) -15.4%
N[C@@H](Cc1ccc(F)cc1)C(=O)O -32.3%
O=C(Oc1ccccc1)N1CCC2(CCCN(c3ccccn3)C2)CC1 3.91%
Cn1c2ccccc2c(=O)c2ccc(F)cc21 -2.58%
C[C@@H](CSc1ccc(Br)cc1)CN1CC[C@H](O)CCC1=O -11.2%
O=C(O)[C@@H]1C[C@H](CP(=O)(O)O)CCN1 -20.5%
CC1=CC2C(=O)c3cccc(O)c3C(=O)C2C(O)=C1 (stereo not given) 13.1%
O=P(O)(O)C(O)(Cc1cccnc1)P(=O)(O)O -5.12%
O=C(O)c1cc(O)c(O)c(O)c1 7.85% and -6.38%
CC(C)=CCc1c(O)cc(C)oc1=O -17.8%
Nc1ccc(N=Nc2ccccc2)c(N)n1 -1.32% and 18.7%
CCN(CC)C(=O)N1CCN(C)CC1 3.46% and 14.5%
C/C=C1\C2C=C(C)C[C@@]1(N)c1ccc(=O)[nH]c1C2 7.89%
O=C1CCN(Cc2ccc([N+](=O)[O-])cc2)CCN1[C@H](CO)c1ccccc1 -19.6%
COc1ccc(-n2c(=O)c(-c3cccs3)nc3cnc(N4CCNCC4)nc32)cc1 -9.96%
O=C(c1cnccn1)N1CCC2(CCCN(c3cccc(-c4ccccc4)c3)C2)CC1 17%
CCCCC#Cc1nc(NC)c2ncn([C@@H]3O[C@H](CO)[C@@H](O)[C@H]3O)c2n1 -17.8%
COc1ccccc1-c1ccnc(-n2ncc(C(=O)NC(C)(C)CO)c2C2CC2)n1 3.59%
C=CCN1CCCC1CNC(=O)c1cc(S(N)(=O)=O)cc(OC)c1OC (stereo not given) 11.7%
Cc1nc(NCc2cnn(C)c2C)sc1-c1ccn(CC2COc3ccccc3O2)n1 (stereo not given) -20%
Cn1cccc1C(=O)N1CCC[C@@]2(CCN(c3ccccc3)C2)C1 3.25%
OC1OC[C@@H](O)[C@H](O)[C@@H]1O (stereo not given in full) -13.2%
N#Cc1ccc(CN2CCCC3(CCNCC3)C2)cc1 -8.86%
O=C(NCC1CCC2(CCN(Cc3ccccc3O)CC2)O1)C1CCCO1 (stereo not given) -8.89%
CC(C)(C)C(O)/C=C/c1ccc2c(c1)OCO2 (stereo not given) -27.3%
CC/C(=C\c1ccccc1)c1cccc2oc3ccccc3c12 -22.7%
Nc1cc(N2CCCCC2)nc(N)[n+]1OS(=O)(=O)[O-] -10.1% and -1.75%
C[C@@H]1CC[C@@]2(OC1)OC1CC3C4CC=C5CC(O)CCC5(C)C4CCC3(C)C1[C@@H]2C (stereo not given in full) -17.9%
COc1ccc(CNc2ccnc(-c3ccccc3C(F)(F)F)n2)c(OC)c1 -6.06%
O=[N+]([O-])c1ccc(Oc2ccc(N=C=S)cc2)cc1 14.8%
CC[C@]1(O)C[C@@H]2CN(CCc3c([nH]c4ccccc34)[C@@](C(=O)OC)(c3cc4c(cc3OC)N(C)[C@H]3[C@@](O)(C(=O)OC)[C@H](OC(C)=O)[C@]5(CC)C=CCN6CC[C@]43[C@@H]65)C2)C1 -6.97% and -10.4%
CN(C)CCOC(c1ccccc1)c1ccccc1 (tested in a mixture with another compound) -8.39%
C=C(C)C1CC=C(C)CC1 (stereo not given) -10.1%
Cn1cnc2c(NC3CCCC3)ncnc21 -7.47%
COc1ccc2[nH]cc(CCNc3ncnc4ccc(-c5cccc(C#N)c5)cc34)c2c1 12.5%
CCOC(=O)c1c(C)cc(O)c(C)c1O 1.13%
CC(CCc1ccc(O)cc1)NCC(O)c1ccc(O)cc1 (stereo not given) -31.8%
CCN(CCCc1ccccc1)CCCc1ccccc1 13.2% and 0.917%
CN(C)Cc1ccccc1-c1nccc(NC2CC2)n1 -7.09%
CCCCC(CC)COC(=O)c1ccccc1O (stereo not given) -6.95%
Cc1c(C)c2c(c(C)c1O)CC[C@@](C)(CCC[C@H](C)CCC[C@H](C)CCCC(C)C)O2 1.42% and -9.92% and -47%
C[C@@H](C1=C(CCN(C)C)Cc2ccccc21)c1ccccn1 -24.1%
O=C(CCN1CCN2CCCC2C1)N1c2ccccc2Sc2ccc(Cl)cc21 (stereo not given) -16.1%
O=C(O)CCC(=O)C(=O)O (tested in a mixture with another compound) -13.1%
O=C(Nc1ccccc1)N1CC2(CCN(C(=O)c3ccco3)CC2)C1 -16.9%
COC1C(O)C(CO)OC1n1c(Br)nc2c(=O)[nH]c(N)nc21 (stereo not given) 3.55%
O=C(NCC1CCC2(CCN(Cc3cccn3-c3ccc(Cl)cn3)CC2)O1)c1ccccc1 (stereo not given) -15.5%
CCCCCCCCCCCCCCCCCC[N+](C)(C)CCC[Si](OC)(OC)OC -8.74%
COc1ccc(CN2CCOc3ccc(C(O)c4cccnc4)cc3C2)c(OC)c1OC (stereo not given) -2.89%
COc1ccc2cc(CNCc3ccccc3Cl)c(N3CCCC(CO)C3)nc2c1 (stereo not given) -1.78%
